Drawing on PubChem BioAssay AID488969 (Vanderbilt High Throughput Screening Facility, 2010), this text covers z-score for 33 molecules.

Whole data set: some 110,000 compounds, median “z-score” near -0.1, cut for the highest 2% near 2. This is one part of the list.

The target of this assay is Metabotropic glutamate receptor 8 (Rattus norvegicus) (UniProt P70579). Nature of the assay: rat mGluR8 modulators via GIRK flux, primary screen, cell-based, thallium flux, HTS (AID 488969). To be noted: HEK293 rat mGluR8, GIRK (G protein-gated inwardly rectifying potassium channel) thallium flux, FluoZin2; at 10 µM; stronger effect = higher value; submaximal glutamate (EC20) added with thallium.
Sequence of UniProt P70579 (P70579 whole entry, looked up): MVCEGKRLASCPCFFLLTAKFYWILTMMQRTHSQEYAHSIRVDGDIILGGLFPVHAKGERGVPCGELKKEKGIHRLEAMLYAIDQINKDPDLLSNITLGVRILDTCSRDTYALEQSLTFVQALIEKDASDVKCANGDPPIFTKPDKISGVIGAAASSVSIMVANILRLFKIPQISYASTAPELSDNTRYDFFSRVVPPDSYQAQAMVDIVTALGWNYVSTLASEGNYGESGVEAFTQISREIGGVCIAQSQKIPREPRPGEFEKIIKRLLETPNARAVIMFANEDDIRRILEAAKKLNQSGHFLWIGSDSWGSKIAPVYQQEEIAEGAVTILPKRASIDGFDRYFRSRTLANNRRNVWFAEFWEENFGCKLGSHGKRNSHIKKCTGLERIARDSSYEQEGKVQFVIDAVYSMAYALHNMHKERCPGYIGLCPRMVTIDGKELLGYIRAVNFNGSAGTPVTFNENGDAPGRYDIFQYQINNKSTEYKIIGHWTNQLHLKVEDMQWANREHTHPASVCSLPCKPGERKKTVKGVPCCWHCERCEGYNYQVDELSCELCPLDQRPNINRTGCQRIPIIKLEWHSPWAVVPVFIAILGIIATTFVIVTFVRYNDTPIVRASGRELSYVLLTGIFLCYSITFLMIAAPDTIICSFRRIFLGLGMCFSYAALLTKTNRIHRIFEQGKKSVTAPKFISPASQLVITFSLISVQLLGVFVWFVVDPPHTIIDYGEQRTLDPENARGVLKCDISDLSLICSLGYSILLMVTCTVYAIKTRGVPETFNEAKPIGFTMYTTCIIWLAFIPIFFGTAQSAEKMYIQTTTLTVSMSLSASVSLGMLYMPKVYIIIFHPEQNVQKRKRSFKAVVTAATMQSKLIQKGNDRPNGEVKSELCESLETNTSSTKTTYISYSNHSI
The molecule `O=C(Cn1c(=O)oc2ccccc21)N1CCCCC1` returned a z-score of -0.313.

As for `CCCCC(c1nnnn1CCOC)N1CCN(CC)CC1` (stereo not drawn), the z-score came out at 0.726.

In the case of `Clc1ccc2nc(CN3CCCc4ccccc43)cn2c1`, the z-score was -0.482.

Regarding `CCOC(=O)N1CCN(C(=O)c2ccc(Cl)c(S(=O)(=O)N3CCOCC3)c2)CC1`, the z-score is -0.0962.

`CCOC(=O)C1=C(C)NC(=O)NC1c1ccccc1Cl` (stereo not drawn) returned a z-score of -1.03.

Regarding `CCOC(=O)c1cc2c(nc1N)CC(C)(CC)OC2` (stereo not drawn), the z-score is -0.0521.

`O=C(Nc1cccc([N+](=O)[O-])c1)c1ccc(CN2CCOCC2)cc1` gave a z-score of -0.154.

The molecule `CC(C)N1CC=C2C(C#N)=C(N)C(C#N)(C#N)[C@H](c3ccoc3)[C@H]2C1` had a z-score of -1.02.

As to `C/C(=N\NC(N)=S)C12CC3CC(CC(C3)C1)C2`, the z-score came out at 2.47.

In the case of `CN(Cc1cn(-c2ccccc2)nc1-c1ccc(Cl)cc1)C(=O)CCC(=O)O`, the z-score was -0.417.

The molecule `O=S(=O)(Nc1cc(Cl)ccn1)c1ccc(Cl)cc1` had a z-score of 0.404.

As for `C=CCc1c(C)[nH]c(=S)c(C#N)c1C`, the z-score stood at 0.33.

For `c1ccc(-c2nnc3sc(Cc4cccs4)nn23)cc1`, the z-score is -2.92.

Molecule `O=c1[nH]c(SCc2nc3ccccc3c(=O)n2-c2ccccc2)nc2ccccc12` gave a z-score of -0.425.

Consider `Cc1c(C(=O)Nc2ccccc2)sc2nc(-c3ccccc3)cn12`, for which the z-score is -0.299.

In turn, `COCc1cc(=O)n2[nH]c(-c3ccccc3)cc2n1` returned a z-score of 0.574.

In the case of `Cc1cc(C)cc(NC(=O)CSc2nnc(-c3ccccc3C)o2)c1`, the z-score stood at 0.162.

Take `Clc1cc(Cl)c2nc(N3CCCCC3)sc2c1`: the z-score is -0.0373.

`CCc1ccc(Nc2ccc(C(N)=O)cc2[N+](=O)[O-])cc1` came in with a z-score of 0.0567.

As to `CC1Cn2c(nnc2-c2cccc(Cl)c2)S1` (stereo not drawn), the z-score amounted to 0.938.

The molecule `CCc1cccc(CC)c1NC(=O)CCCSc1nc2ccccc2s1` returned a z-score of -0.0184.

The molecule `COc1ccc(-n2c(SCC(=O)Nc3nccs3)nc3c(c2=O)SCC3)cc1` displayed a z-score of -0.227.

With `COc1ccc(-c2nnc(-c3cccnc3)o2)cc1`, the z-score amounted to 0.161.

The molecule `CC(C(=O)N1CCN(C2c3ccccc3-c3ccccc32)CC1)N1C(=O)c2ccccc2C1=O` (stereo not drawn) registered a z-score of -0.686.

Turning to `Cc1cc(=O)n2c(C)n[nH]c2n1`, the z-score was -0.0861.

In turn, `CC(C)[C@H](NC(=O)OC(C)(C)C)c1nnc(SCc2cccc(F)c2)o1` came in with a z-score of 0.0783.

For the molecule `Cc1cc(N2CCN(C(=O)c3ccco3)CC2)n2ncnc2n1`, the z-score was -0.0355.

As to `CC(=O)C1=C(C)Nc2ncnn2C1c1cccc(OCc2ccccc2)c1` (stereo not drawn), the z-score was -0.505.

Molecule `O=C(N/N=C/c1ccc(Cl)cc1Cl)Nc1ccccc1` yielded a z-score of -0.276.

For the molecule `Cc1cc(C)c2nc(SCC(=O)N3CC(=O)Nc4ccccc43)c(C#N)cc2c1`, the z-score is -0.188.

Regarding `Cc1ccc(/C=N/n2cnnc2)s1`, the z-score was 0.0344.

Turning to `O=C(NCC1CCC(C(=O)O)CC1)OCc1ccccc1` (stereo not drawn), the z-score is -0.155.

Molecule `COC(=O)c1ccc(C2C(C#N)=C(C)NC3=C2C(=O)CC(C)(C)C3)cc1` (stereo not drawn) gave a z-score of -0.376.
